# The other results are listed elsewhere or left out.
# How the values were obtained:
# Test in all cases: glycan array binding signal (z-score within array); higher = stronger binding
# Conditions in all cases: glycan notation: IUPAC condensed, linker removed
# [1] = biological target: Fuc(a1-2)Gal
# Summary of the method: (§1)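 Negative Z-scores can be read as non-binding. The Z-score is calculated within each array and then averaged across arrays of one protein sequence at different concentrations or buffers and across linkers. Arrays, 3228 in all, were curated from the Consortium for Functional Glycomics database and kept only where the protein sequence was available.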
# [2] = biological target: Fuc(a1-2)Gal(b1-3)GalNAc
# Summary of the method: as §1
# [3] = biological target: Fuc(a1-2)Gal(b1-3)GalNAc(a1-3)[Fuc(a1-2)]Gal(b1-4)Glc
# Summary of the method: as §1
# [4] = biological target: Fuc(a1-2)Gal(b1-3)GalNAc(a1-3)[Fuc(a1-2)]Gal(b1-4)GlcNAc
# Summary of the method: as §1
# [5] = biological target: Fuc(a1-2)Gal(b1-3)GalNAc(b1-3)Gal
# Summary of the method: as §1
# [6] = biological target: Fuc(a1-2)Gal(b1-3)GalNAc(b1-3)Gal(a1-4)Gal(b1-4)Glc
# Summary of the method: as §1
# [7] = biological target: Fuc(a1-2)Gal(b1-3)GalNAc(b1-4)[Neu5Ac(a2-3)]Gal(b1-4)Glc
# Summary of the method: as §1
# [8] = biological target: Fuc(a1-2)Gal(b1-3)GlcNAc
# Summary of the method: as §1
# [9] = biological target: Fuc(a1-2)Gal(b1-3)GlcNAc(b1-2)Man(a1-3)[Fuc(a1-2)Gal(b1-3)GlcNAc(b1-2)Man(a1-6)]Man(b1-4)GlcNAc(b1-4)GlcNAc
# Summary of the method: as §1
# [10] = biological target: Fuc(a1-2)Gal(b1-3)GlcNAc(b1-2)Man(a1-3)[Fuc(a1-2)Gal(b1-3)GlcNAc(b1-2)Man(a1-6)]Man(b1-4)GlcNAc(b1-4)[Fuc(a1-6)]GlcNAc
# Summary of the method: as §1
# [11] = biological target: Fuc(a1-2)Gal(b1-3)GlcNAc(b1-3)Gal(b1-4)Glc
# Summary of the method: as §1
# [12] = biological target: Fuc(a1-2)Gal(b1-3)GlcNAc(b1-3)GalNAc
# Summary of the method: as §1
# [13] = biological target: Fuc(a1-2)Gal(b1-3)GlcNAc(b1-3)[Fuc(a1-2)Gal(b1-3)GlcNAc(b1-6)]GalNAc
# Summary of the method: as §1
# [14] = biological target: Fuc(a1-2)Gal(b1-3)GlcNAc(b1-3)[Gal(b1-4)GlcNAc(b1-6)]Gal(b1-4)Glc
# Summary of the method: as §1
# [15] = biological target: Fuc(a1-2)Gal(b1-3)GlcNAc(b1-3)[Neu5Ac(a2-6)Gal(b1-4)GlcNAc(b1-6)]Gal(b1-4)Glc
# Summary of the method: as §1
# [16] = biological target: Fuc(a1-2)Gal(b1-3)GlcNAc6S
# Summary of the method: as §1
# [17] = biological target: Fuc(a1-2)Gal(b1-3)[Fuc(a1-4)]GlcNAc
# Summary of the method: as §1
# [18] = biological target: Fuc(a1-2)Gal(b1-3)[Fuc(a1-4)]GlcNAc(b1-2)Man(a1-3)[Fuc(a1-2)Gal(b1-3)[Fuc(a1-4)]GlcNAc(b1-2)Man(a1-3)]Man(b1-4)GlcNAc(b1-4)GlcNAc
# Summary of the method: as §1
# [19] = biological target: Fuc(a1-2)Gal(b1-3)[Fuc(a1-4)]GlcNAc(b1-2)Man(a1-3)[Fuc(a1-2)Gal(b1-3)[Fuc(a1-4)]GlcNAc(b1-2)Man(a1-6)]Man(b1-4)GlcNAc(b1-4)[Fuc(a1-6)]GlcNAc(b1-4)[Fuc(a1-6)]GlcNAc
# Summary of the method: as §1
# [20] = biological target: Fuc(a1-2)Gal(b1-3)[Fuc(a1-4)]GlcNAc(b1-3)[Fuc(a1-3)[Gal(b1-4)]GlcNAc(b1-6)]Gal(b1-4)Glc
# Summary of the method: as §1
# [21] = biological target: Fuc(a1-2)Gal(b1-3)[Fuc(a1-4)]GlcNAc(b1-3)[Gal(b1-4)GlcNAc(b1-6)]Gal(b1-4)Glc
# Summary of the method: as §1
# [22] = biological target: Fuc(a1-2)Gal(b1-4)Glc
# Summary of the method: as §1
# [23] = biological target: Fuc(a1-2)Gal(b1-4)Glc6S
# Summary of the method: as §1
# [24] = biological target: Fuc(a1-2)Gal(b1-4)GlcNAc
# Summary of the method: as §1
# [25] = biological target: Fuc(a1-2)Gal(b1-4)GlcNAc(b1-2)Man
# Summary of the method: as §1
# [26] = biological target: Fuc(a1-2)Gal(b1-4)GlcNAc(b1-2)Man(a1-3)[Fuc(a1-2)Gal(b1-4)GlcNAc(b1-2)Man(a1-6)]Man(b1-4)GlcNAc(b1-4)GlcNAc
# Summary of the method: as §1
# [27] = biological target: Fuc(a1-2)Gal(b1-4)GlcNAc(b1-2)Man(a1-3)[Fuc(a1-2)Gal(b1-4)GlcNAc(b1-2)Man(a1-6)]Man(b1-4)GlcNAc(b1-4)[Fuc(a1-6)]GlcNAc
# Summary of the method: as §1
# [28] = biological target: Fuc(a1-2)Gal(b1-4)GlcNAc(b1-2)[Fuc(a1-2)Gal(b1-4)GlcNAc(b1-4)]Man(a1-3)[Fuc(a1-2)Gal(b1-4)GlcNAc(b1-2)Man(a1-6)]Man(b1-4)GlcNAc(b1-4)GlcNAc
# Summary of the method: as §1
# [29] = biological target: Fuc(a1-2)Gal(b1-4)GlcNAc(b1-3)Gal(b1-4)GlcNAc
# Summary of the method: as §1
# [30] = biological target: Fuc(a1-2)Gal(b1-4)GlcNAc(b1-3)Gal(b1-4)GlcNAc(b1-2)Man(a1-3)[Fuc(a1-2)Gal(b1-4)GlcNAc(b1-3)Gal(b1-4)GlcNAc(b1-2)Man(a1-6)]Man(b1-4)GlcNAc(b1-4)GlcNAc
# Summary of the method: as §1
binder,measurement,setting,value
TIM1 (protein) ADGIQSVKVGGEAGPSVTLPCHYSGAVTSMCWNRGSCSLFTCQNGIVWTNGTHVTYRKDTRYKLLGDLSRRDVSLTIENTAVSDSGVYCCRVEHRGWFNDMKITVSLEIVPPHHHHHH,glycan array binding signal (z-score),[1],-0.095
same,glycan array binding signal (z-score),[2],-0.179
same,glycan array binding signal (z-score),[3],-0.288
same,glycan array binding signal (z-score),[4],-0.281
same,glycan array binding signal (z-score),[5],0.033
same,glycan array binding signal (z-score),[6],-0.224
same,glycan array binding signal (z-score),[7],-0.249
same,glycan array binding signal (z-score),[8],-0.162
same,glycan array binding signal (z-score),[9],-0.194
same,glycan array binding signal (z-score),[10],-0.132
same,glycan array binding signal (z-score),[11],-0.236
same,glycan array binding signal (z-score),[12],-0.153
same,glycan array binding signal (z-score),[13],0.122
same,glycan array binding signal (z-score),[14],-0.272
same,glycan array binding signal (z-score),[15],-0.234
same,glycan array binding signal (z-score),[16],0.045
same,glycan array binding signal (z-score),[17],-0.2
same,glycan array binding signal (z-score),[18],-0.011
same,glycan array binding signal (z-score),[19],0.072
same,glycan array binding signal (z-score),[20],-0.272
same,glycan array binding signal (z-score),[21],-0.253
same,glycan array binding signal (z-score),[22],-0.139
same,glycan array binding signal (z-score),[23],-0.085
same,glycan array binding signal (z-score),[24],-0.205
same,glycan array binding signal (z-score),[25],-0.282
same,glycan array binding signal (z-score),[26],-0.202
same,glycan array binding signal (z-score),[27],-0.244
same,glycan array binding signal (z-score),[28],0.063
same,glycan array binding signal (z-score),[29],-0.308
same,glycan array binding signal (z-score),[30],0.01
